From the supplement of paper PMC4166925
± gives the standard deviation of the averaged measurements. Whole data set: some 33,000 sequences, median “E-score (dimensionless, -0.5 to 0.5)” near -0.046, cut for the highest 2% near 0.36. This is one part of the list.

System: T1, SpTbr T-box DNA-binding domain (GST fusion)
T1 sequence: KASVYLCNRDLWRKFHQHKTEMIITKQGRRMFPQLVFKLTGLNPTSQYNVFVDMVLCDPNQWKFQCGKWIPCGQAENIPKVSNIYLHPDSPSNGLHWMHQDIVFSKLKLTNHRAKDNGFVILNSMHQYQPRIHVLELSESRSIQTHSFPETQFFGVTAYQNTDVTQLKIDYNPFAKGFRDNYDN
Test: PBM E-score of 8-mer (E-score (dimensionless, -0.5 to 0.5)); Tbr is Tbrain of the sea star Patiria miniata (Pm) or the sea urchin Strongylocentrotus purpuratus (Sp); higher = stronger binding preference; most listed sequences are background and not binding sites
Conditions: the construct has about 5 more residues each side
Outline: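 Universal Agilent oligonucleotide arrays, made double-stranded by primer extension, were incubated with 200 nM GST-fused Tbr T-box DNA-binding domain in PBS (pH 7.5). The protein was expressed in BL21 E. coli at 20 °C and purified by glutathione affinity chromatography. After scanning and quantification, the Universal PBM Analysis Suite assigned an enrichment E-score to each ungapped 8-mer, averaged over duplicate arrays.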

Sequence | PBM E-score of 8-mer
CACAAGAA | -0.103 ± 0.0099
AAGCAAAC | -0.043 ± 0.0047
AGTTTTCA | -0.0351 ± 0.023
AAGCTTCT | -0.174 ± 0.06
AGGATGGG | -0.238 ± 0.097
AGTAACCG | -0.141 ± 0.032
CGTTGGAA | -0.178 ± 0.065
AACATTGC | -0.0517 ± 0.018
CCTCCCCA | 0.0422 ± 0.042
AACTCAGC | -0.111 ± 0.16
CGTAGGGA | -0.119 ± 0.043
CAATGAAA | -0.0996 ± 0.026
ACCATTCC | -0.173 ± 0.019
ACGGACAG | -0.0366 ± 0.0078
AGCAAGGG | -0.109 ± 0.0078
GAGCCGGA | -0.275 ± 0.019
AAAGAACG | -0.0627 ± 0.059
CTTTGTAA | -0.125 ± 0.01
AACGTACC | -0.362 ± 0.0053
CGCACATC | 0.338 ± 0.022
CTCTCGTC | 0.00785 ± 0.001
AATGGCCG | -0.0624 ± 0.011
ATATCGTG | -0.00237 ± 0.011
AAGGAACA | -0.0728 ± 0.0028
GAAGTGCC | 0.252 ± 0.013

Sequence | PBM E-score of 8-mer
GGGATTAC | -0.0663 ± 0.035
GTCATCCA | 0.0416 ± 0.0033
ATTCGGCC | -0.0848 ± 0.03
TATGCATA | -0.194 ± 0.18
CTCAGAGA | -0.274 ± 0.011
TGGTTAAA | -0.0311 ± 0.097
ACTTTCCA | 0.113 ± 0.099
CATTTAGA | -0.0495 ± 0.043
GTGAATAA | 0.297 ± 0.048
ATGCTTTG | 0.0712 ± 0.058
AGGACCCT | -0.205 ± 0.089
CGTAAAAA | -0.0432 ± 0.096
AGACACAA | 0.11583 ± 7.1e-06
ATAATTAT | -0.166 ± 0.015
CCTCTACC | -0.103 ± 0.045
ACCTTTCT | 0.00707 ± 0.012
ATAAATGC | -0.0319 ± 0.057
CTTGTGCC | -0.0432 ± 0.012
ACAGAGGG | -0.118 ± 0.029
ATTGTATC | -0.0284 ± 0.019
ATCAACCG | -0.199 ± 0.015
CCCCAGGC | -0.219 ± 0.014
CTCACGGA | 0.0974 ± 0.031
ATTGGGAC | -0.269 ± 0.026
ACACTGCC | 0.0459 ± 0.067

Sequence | PBM E-score of 8-mer
CCTTGCGC | 0.131 ± 0.0037
CCTACACG | 0.0185 ± 0.081
ACAGCAGA | -0.106 ± 0.047
CCAAAGGG | -0.173 ± 0.035
GGACATCC | -0.105 ± 0.073
GCTTCCCA | 0.0719 ± 0.0025
CTATCAAC | 0.0735 ± 0.067
TTAATGAA | -0.153 ± 0.044
CTATGCTA | -0.0322 ± 0.017
ATATCGAT | 0.0225 ± 0.016
AAAGCTTC | -0.0192 ± 0.087
ATGTTGAC | 0.13 ± 0.044
GAGTCTAC | -0.216 ± 0.026
CAGGGGGA | -0.201 ± 0.088
CAGTGCAA | 0.0036 ± 0.071
GTTTCTAA | -0.0313 ± 0.023
CAAATTTG | -0.0145 ± 0.092
TACACCCA | 0.105 ± 0.011
GGCGTTTA | 0.0351 ± 0.013
GTTTACTA | -0.113 ± 0.016
ATAAATTA | -0.0716 ± 0.0029
GTTGACGA | 0.279 ± 0.0033
CACCATAC | -0.065 ± 0.011
ACCAGTCA | -0.0447 ± 0.044
CCAATCCC | -0.008 ± 0.041

Sequence | PBM E-score of 8-mer
CAACTCTC | -0.0237 ± 0.0004
AAGTTAAC | 0.000455 ± 0.059
CGTATGTC | -0.00215 ± 0.014
ACTATCTC | -0.0871 ± 0.021
CTATTTTA | -0.187 ± 0.052
ATCGTTAA | 0.202 ± 0.037
CCAACAAG | 0.187 ± 0.0044
AGTGGTCC | -0.187 ± 0.032
CCTGGTAC | -0.00179 ± 0.032
GTAATGTA | -0.265 ± 0.034
CGTTACAG | 0.0884 ± 0.12
GTTACACA | 0.203 ± 0.0028
AGGGTTCA | -0.137 ± 0.054
ACTGTACT | -0.0426 ± 0.11
ATAATAGG | -0.0475 ± 0.033
ATCATGTC | 0.0741 ± 0.013
CAGAGGGG | -0.238 ± 0.036
CTCTATTA | -0.0121 ± 0.1
AAGGCTAG | -0.218 ± 0.07
CGTTGGCC | -0.214 ± 0.079
ACCCTGTA | -0.0127 ± 0.058
CCCACGAC | 0.135 ± 0.013
TCGGGGAA | -0.221 ± 0.021
CGGGTTAG | -0.144 ± 0.074
AATTGAGC | -0.197 ± 0.0054

Sequence | PBM E-score of 8-mer
CCAACTCC | -0.0214 ± 0.0039
GAGTGAGC | -0.0323 ± 0.13
GGGAACAA | -0.124 ± 0.021
CGAGGGAA | -0.123 ± 0.058
CTATTGGC | 0.133 ± 0.055
AGTCCGCG | 0.174 ± 0.034
AAGGTCAG | -0.148 ± 0.0046
AAGCACTC | -0.0686 ± 0.056
GCGGAGCA | -0.00457 ± 0.049
AATTTCAC | 0.269 ± 0.02
ACTCGTCT | -0.105 ± 0.051
ACATCTTA | 0.00684 ± 0.033
CGCATAGC | 0.0118 ± 0.061
ACGAAGAT | -0.0932 ± 0.022
ACACTGTC | 0.29875 ± 0.00028
GAGAATTA | -0.00577 ± 0.11
ACCTCCGG | -0.171 ± 0.027
AGAATCCA | -0.0617 ± 0.035
AAGATATT | -0.111 ± 0.053
GTATGTTA | 0.133 ± 0.013
GATTAGTA | -0.0363 ± 0.088
CGACTCGC | 0.173 ± 0.053
GATTAATA | 0.028 ± 0.038
GGGGAATA | -0.207 ± 0.0041
TAAAACAA | -0.112 ± 0.0035

Sequence | PBM E-score of 8-mer
ATAACGAC | 0.169 ± 0.021
ACCAGACC | -0.126 ± 0.014
CCAACGAC | 0.0917 ± 0.022
GTCTCAGA | -0.0914 ± 0.014
CGATAAAC | 0.138 ± 0.063
GTACCGTA | -0.33 ± 0.0053
GATTGGGC | -0.174 ± 0.042
GGAAAACA | -0.149 ± 0.051
CTCTATCA | 0.0624 ± 0.021
CAAACGTA | -0.157 ± 0.026
ACTGACCT | -0.178 ± 0.011
AGGCTACC | -0.326 ± 0.017
ATGTTTTG | 0.00867 ± 0.052
CAGTACGG | -0.315 ± 0.0061
GCGTCAGC | 0.225 ± 0.024
GCTTGCCC | -0.201 ± 0.049
CGCTATAC | 0.121 ± 0.022
AAATTGCA | -0.0681 ± 0.087
ATTGAGTC | -0.00524 ± 0.047
GTCTACGA | -0.0784 ± 0.053
AGTTGTCC | -0.136 ± 0.07
CGGAACGA | -0.177 ± 0.022
GTCTAACA | 0.138 ± 0.0084
AGGACAAA | 0.154 ± 0.076
GCGCGATA | 0.288 ± 0.014

Sequence | PBM E-score of 8-mer
TGCAGAAA | -0.264 ± 0.026
AAACCGCA | 0.0197 ± 0.063
GACCCTGA | 0.0778 ± 0.024
CATCTATC | -0.159 ± 0.038
TCGGGACA | -0.0471 ± 0.01
AGTAGGTG | 0.3972 ± 0.0024
CACGTTCA | 0.14 ± 0.0047
CCCGGTTC | -0.0898 ± 0.054
AAACCCGT | 0.111 ± 0.068
CCGGCTTA | -0.222 ± 0.0053
GATTCAGA | -0.233 ± 0.061
CCCTACAG | -0.178 ± 0.018
ATCTTCAC | 0.267 ± 0.02
ACGCTTCA | 0.059 ± 0.061
ACATATGT | 0.178 ± 0.093
AGCTCCCC | -0.247 ± 0.059
CGATCTGA | 0.0733 ± 0.0072
ACAGCGGC | -0.0426 ± 0.039
ACGGTGTC | 0.271 ± 0.051
GACCGCTC | -0.228 ± 0.018
CTCTCCAG | -0.12 ± 0.028
CTAGCTCA | -0.133 ± 0.032
CATGGATC | -0.148 ± 0.015
AGTATGCC | -0.192 ± 0.0078
AGGAGCAA | -0.0744 ± 0.025

Sequence | PBM E-score of 8-mer
CTGGTCGA | -0.0516 ± 0.067
GATAGTTA | 0.0786 ± 0.03
AATTCGAA | -0.258 ± 0.054
ACGGTTTC | 0.0626 ± 0.061
ACGTCTCA | -0.0871 ± 0.0036
GCACATAC | 0.164 ± 0.03
CACGTGAG | 0.13 ± 0.053
GCCCGATA | -0.0847 ± 0.018
CCGCAAAG | -0.233 ± 0.015
CGTAGTAA | -0.122 ± 0.066
AATCCAGG | -0.0837 ± 0.024
AATGCGAT | 0.0396 ± 0.031
ACAGACGA | -0.235 ± 0.0019
TCCGAGCA | -0.352 ± 0.073
ACCTAGCA | 0.188 ± 0.034
CCAAAGGC | -0.0125 ± 0.018
AAGATATG | -0.00409 ± 0.01
GAAGGCAA | -0.163 ± 0.024
ACGTCAGC | -0.0927 ± 0.059
AGCCAATC | -0.0978 ± 0.065
GCTATGAC | 0.0634 ± 0.025
CCGTCACG | 0.212 ± 0.011
GAGTGGAA | 0.102 ± 0.085
AGGGCCAA | -0.293 ± 0.026
CAGGGATC | -0.17 ± 0.046

Sequence | PBM E-score of 8-mer
GACAAATA | 0.0842 ± 0.084
AGGACTCG | -0.0393 ± 0.1
TGATTGCA | 0.15 ± 0.051
ACCCGCAC | 0.268 ± 0.032
CAGACGGG | 0.0162 ± 0.03
AGGATTGC | 0.00818 ± 0.037
AAATCCCG | -0.186 ± 0.035
CGCCGCTC | -0.203 ± 0.064
ATGATATC | 0.0897 ± 0.021
ATGAGCCA | -0.174 ± 0.024
CCCCACGC | -0.0704 ± 0.008
CCCGCCTA | -0.0474 ± 0.13
GGATTAAC | -0.0379 ± 0.053
AATAAGAC | -0.109 ± 0.095
CGTCTAGC | -0.0785 ± 0.026
AAGCCCGA | -0.0877 ± 0.072
CGAGAATC | 0.1836 ± 0.0013
ATCGACCA | 0.126 ± 0.0048
ACACAATC | 0.24 ± 0.033
